In the antibiotic and cytotoxicity screens of Wong et al. (2023):
Some of the results follow.

Columns and labels:
[1] = tested on: HSkMC (human skeletal muscle cells); experiment: cytotoxicity call (relative viability < 0.9); details: 10 µM
[2] = tested on: HepG2; experiment: cytotoxicity call (relative viability < 0.9); details: 10 µM
[3] = tested on: S. aureus RN4220; experiment: growth inhibition call (relative growth <= 0.2); details: 50 µM

Structure (SMILES) | cytotoxicity call [1] | cytotoxicity call [2] | growth inhibition call [3]
C[C@H](CO)N1C[C@H](C)[C@H](CN(C)S(C)(=O)=O)Oc2ccc(NC(=O)CCC(F)(F)F)cc2C1=O | inactive | inactive | inactive
COc1ccc(S(=O)(=O)Nc2ccc3c(c2)C(=O)N([C@H](C)CO)C[C@H](C)[C@@H](CN(C)S(=O)(=O)c2ccc(C)cc2)O3)cc1 | inactive | inactive | inactive
C[C@H]1[C@H]([Si](C)(C)F)[C@@H](CCO)O[C@]12C(=O)N(Cc1cccc(N3C(=O)c4ccccc4Oc4ccccc43)c1)c1ccccc12 | inactive | inactive | inactive
C[C@H]1CCCCO[C@H](CN(C)C(=O)Nc2ccc(F)cc2)[C@@H](C)CN([C@@H](C)CO)C(=O)c2cc(NC(=O)Nc3ccc(F)cc3)ccc2O1 | inactive | inactive | inactive
Cc1noc(C)c1S(=O)(=O)Nc1ccc2c(c1)CC(=O)N([C@@H](C)CO)C[C@@H](C)[C@H](CN(C)Cc1ccc3c(c1)OCO3)O2 | inactive | inactive | inactive
O=C1C[C@]2(c3ccc([N+](=O)[O-])cc3)C(=O)N(Cc3ccccc3)c3cc(CO)ccc3[C@H]2N1CC12CC3CC(CC(C3)C1)C2 | inactive | inactive | inactive
CN1CCN(C(=O)C[C@@H]2CC[C@H]3[C@@H](COc4ccc(NC(=O)c5ccc(F)c(F)c5)cc4C(=O)N3C)O2)CC1 | inactive | inactive | inactive
COc1ccc(NC(=O)Nc2ccc3c(c2)C(=O)N([C@@H](C)CO)C[C@@H](C)[C@@H](CN(C)C(=O)NC2CCCCC2)OCCCC[C@@H](C)O3)cc1 | active | inactive | inactive
COC(=O)CC1C(C)(C)C(=O)C2CC3=C4CC(=O)OC(c5ccoc5)C4(C)CCC3C1(C)C2=O (centres undefined) | inactive | inactive | inactive
COc1cccc(C#Cc2cnc3c(c2)C(=O)N([C@H](C)CO)C[C@H](C)[C@@H](CN(C)C(=O)C2CCC2)O3)c1 | inactive | inactive | inactive
C[C@H]1CN([C@@H](C)CO)S(=O)(=O)c2ccc(C#CC3CCCC3)cc2O[C@@H]1CN(C)C(=O)Cc1ccncc1 | inactive | inactive | inactive
O=C(C[C@@H]1CC[C@@H]2[C@H](COC[C@H](O)CN2S(=O)(=O)c2ccc(Oc3ccccc3)cc2)O1)NCCN1CCCCC1 | inactive | inactive | inactive
O=C(C[C@@H]1CC=CC[C@H](NC(=O)OCC2c3ccccc3-c3ccccc32)C(=O)OC[C@H](Cc2ccccc2)NC1=O)N[C@@H](CO)Cc1ccccc1 | inactive | inactive | inactive
C[C@@H]1CCCCO[C@@H](CN(C)C(=O)Cc2ccccc2)[C@H](C)CN([C@@H](C)CO)C(=O)c2cc(NC(=O)Nc3cccc4ccccc34)ccc2O1 | inactive | inactive | inactive
CN(C)CC#Cc1ccc([C@H]2[C@@H](CO)N3C(=O)CN(C(=O)c4cccnc4)C[C@H]23)cc1 | inactive | inactive | inactive
C[C@@H]1CN([C@@H](C)CO)C(=O)Cc2cc(NC(=O)CCC(F)(F)F)ccc2O[C@H]1CN(C)Cc1ccc(Cl)c(Cl)c1 | active | active | inactive
C[C@@H]1CN([C@H](C)CO)C(=O)c2cc(NC(=O)Nc3ccccc3)ccc2O[C@H]1CN(C)Cc1ccc(-c2ccccc2)cc1 | inactive | active | inactive
COc1ccc(C#Cc2cnc3c(c2)C(=O)N([C@H](C)CO)C[C@H](C)[C@H](CN(C)S(=O)(=O)c2cn(C)cn2)O3)cc1OC | inactive | inactive | inactive
C[N+](C)(C)CCO.[Cl-] | inactive | inactive | inactive
CCC[C@@H](O)C#Cc1cnc2c(c1)C(=O)N([C@H](C)CO)C[C@H](C)[C@H](CN(C)Cc1ccc3c(c1)OCO3)O2 | inactive | inactive | inactive
CNS(=O)(=O)c1ccc(Cl)c(C(N)=O)c1 | inactive | inactive | inactive
C=C(NC(=O)C(=C)NC(=O)c1csc(C2=NC3c4csc(n4)C4NC(=O)c5csc(n5)C(C(C)(O)C(C)O)NC(=O)C5CSC(=N5)C(=CC)NC(=O)C(C(C)O)NC(=O)c5csc(n5)C3(CC2)NC(=O)C(C)NC(=O)C(=C)NC(=O)C(C)NC(=O)C(C(C)CC)NC2C=Cc3c(C(C)O)cc(nc3C2O)C(=O)OC4C)n1)C(N)=O (centres undefined) | inactive | active | active
Cc1ccc(S(=O)(=O)Nc2ccc3c(c2)C(=O)N([C@H](C)CO)C[C@H](C)[C@@H](CN(C)C(=O)Nc2ccccc2)OCCCC[C@H](C)O3)cc1 | inactive | inactive | inactive
Cc1ccc(S[C@]2(C(=O)NCC(C)C)CC(=O)N(Cc3ccccc3C(F)(F)F)[C@@H]2c2ccc(CO)cc2)cc1 | inactive | inactive | inactive
Cc1ccc(NC(=O)CC(C)C)cc1 | inactive | inactive | inactive
COc1ccccc1-c1cnc2c(c1)C(=O)N([C@@H](C)CO)C[C@@H](C)[C@H](CN(C)C(=O)c1ccncc1)O2 | inactive | inactive | inactive
Cc1ccc(S(=O)(=O)Nc2ccc3c(c2)C(=O)N([C@@H](C)CO)C[C@@H](C)[C@H](CN(C)CC2CC2)O3)cc1 | inactive | inactive | inactive

Structure (SMILES) | cytotoxicity call [1] | cytotoxicity call [2] | growth inhibition call [3]
CNC[C@@H]1Oc2cc(C#CCN(C)C)ccc2S(=O)(=O)N([C@@H](C)CO)C[C@H]1C | inactive | inactive | inactive
C[C@H](CO)N1C[C@H](C)[C@@H](CN(C)S(=O)(=O)c2ccc(F)cc2)Oc2ncc(-c3ccncc3)cc2C1=O | inactive | inactive | inactive
C[C@@H]1CN([C@@H](C)CO)C(=O)c2c(c3ccccc3n2C)-c2ccccc2CO[C@@H]1CN(C)Cc1ccc(F)cc1 | inactive | inactive | inactive
CO[C@@H]1CN(C)C(=O)c2ccc(NC(=O)c3ccc(Oc4ccccc4)cc3)cc2OC[C@@H](C)N(C(C)=O)C[C@H]1C | inactive | inactive | inactive
O=C(C[C@H]1CC[C@H](NC(=O)CN2CCOCC2)[C@H](CO)O1)NCc1cccc(F)c1 | inactive | inactive | inactive
C[C@@H]1CN([C@@H](C)CO)C(=O)c2cc(C#Cc3ccccc3F)cnc2O[C@H]1CN(C)S(=O)(=O)c1ccccc1 | inactive | inactive | inactive
CC(C)NC(=O)Nc1ccc2c(c1)C(=O)N([C@H](C)CO)C[C@@H](C)[C@@H](CN(C)Cc1ccc(C(=O)O)cc1)O2 | inactive | inactive | inactive
CCC(=O)Nc1ccc2c(c1)C(=O)N(C)C[C@@H](OC)[C@H](C)CN(C(=O)CN1CCOCC1)[C@H](C)CO2 | inactive | inactive | inactive
C[C@@H]1CCCCO[C@@H](CN(C)Cc2ccncc2)[C@@H](C)CN([C@@H](C)CO)C(=O)c2cc(NC(=O)CCC(F)(F)F)ccc2O1 | inactive | inactive | inactive
CO[C@@H]1CN(C)C(=O)c2ccc(NS(C)(=O)=O)cc2OC[C@H](C)N(C(=O)c2ccc3c(c2)OCO3)C[C@H]1C | inactive | inactive | inactive
CCC(=O)Nc1ccc2c(c1)OC[C@@H](C)N(C(=O)CN1CCOCC1)C[C@@H](C)[C@@H](OC)CN(C)C2=O | inactive | inactive | inactive
C[C@@H]1CCCCO[C@H](CN(C)C(=O)C2CCCCC2)[C@H](C)CN([C@@H](C)CO)C(=O)c2cc(NS(=O)(=O)c3ccc(Cl)cc3)ccc2O1 | active | inactive | inactive
C[C@H](CO)N1C[C@H](C)[C@@H](CN(C)Cc2ccc(Cl)c(Cl)c2)Oc2c(NC(=O)Nc3ccccc3)cccc2C1=O | active | inactive | inactive
Cn1ncc2c(N3CCCC3)ncnc21 | inactive | inactive | inactive
C[C@H]1CN([C@@H](C)CO)C(=O)c2cccc(NC(=O)Nc3ccccc3)c2O[C@H]1CN(C)Cc1ccc(Cl)c(Cl)c1 | inactive | inactive | inactive
C[C@@H]1CN([C@H](C)CO)C(=O)c2cc(NS(=O)(=O)c3ccc(F)cc3)ccc2O[C@@H]1CN(C)C(=O)Nc1cccc2ccccc12 | inactive | inactive | inactive
CC(C)NC(=O)Nc1ccc2c(c1)C(=O)N([C@@H](C)CO)C[C@H](C)[C@@H](CN(C)Cc1ccc3c(c1)OCO3)O2 | inactive | inactive | inactive
C[C@@H]1CCCCO[C@H](CN(C)C(=O)c2ccccc2)[C@@H](C)CN([C@@H](C)CO)C(=O)c2cc(NC(=O)C3CCCCC3)ccc2O1 | inactive | inactive | inactive
COCC#Cc1cnc2c(c1)C(=O)N([C@@H](C)CO)C[C@H](C)[C@H](CN(C)S(=O)(=O)c1ccccc1)O2 | inactive | inactive | inactive
C[C@@H]1CCCCO[C@@H](CN(C)C(=O)C2CCCCC2)[C@@H](C)CN([C@H](C)CO)C(=O)c2cc(NS(=O)(=O)c3ccc(F)cc3)ccc2O1 | inactive | inactive | inactive
C[C@@H]1CN([C@H](C)CO)C(=O)CCCn2nncc2CO[C@@H]1CN(C)S(=O)(=O)c1ccccc1C#N | inactive | inactive | inactive
COc1ccc(N2C(=O)N3CCc4cc(OC)c(OC)cc4[C@@H]3[C@@H](Cc3ccccc3)[C@H]2COC(=O)NCCCCCC(=O)NO)cc1 | inactive | inactive | inactive
COc1ccc(S(=O)(=O)Nc2ccc3c(c2)CC(=O)N([C@@H](C)CO)C[C@H](C)[C@@H](CN(C)C(=O)NC(C)C)O3)cc1 | inactive | inactive | inactive
C[C@H]1CN([C@@H](C)CO)C(=O)c2cccc(NC(=O)Nc3cccc4ccccc34)c2O[C@H]1CN(C)Cc1ccc(C(F)(F)F)cc1 | inactive | inactive | inactive
NC(=O)N1Cc2nccn2C[C@H](Cn2cncn2)C1 | inactive | inactive | inactive
O=C(C[C@H]1C[C@@H]2c3cc(NS(=O)(=O)c4ccc(F)cc4)ccc3O[C@@H]2[C@@H](CO)O1)NCc1cccnc1 | inactive | inactive | inactive
